The other results are listed elsewhere or left out.
Each sequence was assayed on T1, Caupolican (Caup) homeodomain DNA-binding domain (assay: PBM E-score (8-mer, recovered from the published 9-mer minima) (E-score (dimensionless, -0.5 to 0.5)); Drosophila protein; higher = stronger relative binding preference, active = 0.31 or more).
T1 sequence: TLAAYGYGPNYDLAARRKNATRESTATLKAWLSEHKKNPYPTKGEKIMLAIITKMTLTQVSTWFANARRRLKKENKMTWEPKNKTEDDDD
Experimental: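 Protein binding microarray (PBM): in vitro transcribed/translated Caupolican (Caup) homeodomain DNA-binding domain (residues 214-303) applied at 100 nM to a universal 8-mer PBM array (Agilent AMADID 015681). The 8-mer enrichment score (E-score, range -0.5 to 0.5) was computed, and each 9-mer score is the minimum E-score of its two constituent 8-mers. The E-score is the same for a 9-mer and its reverse complement; 0.31 is the stated binding threshold.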
For ATATCCAA, the “PBM E-score” value was inactive: 0.0871. CCTAAACA was tested, and the “PBM E-score” value was inactive: 0.117. With GCAAGGCC the “PBM E-score” value was inactive: -0.216. For CGCTAACG, the “PBM E-score” value was inactive: -0.08. For TTCTCCAA, the “PBM E-score” value was inactive: -0.102. With GAAAGGGC the “PBM E-score” value was inactive: -0.133. AAGACAAG was tested, and the “PBM E-score” value was ≥ 0.267. With GCAAGTAC the “PBM E-score” value was inactive: 0.176. For AATCGATC, the “PBM E-score” value was inactive: 0.0948. In the case of AGATGTGG, the “PBM E-score” value is reported as inactive: 0.0972. With AGCATGAC the “PBM E-score” value was inactive: 0.0874. For CTGAGTCC, the “PBM E-score” value was inactive: -0.12. CGTGGGTA was tested, and the “PBM E-score” value was inactive: -0.137. For CTTGTCAC, the “PBM E-score” value was active: 0.322. In the case of GTCGCCCA, the “PBM E-score” value is reported as inactive: -0.175. For ATATAGGG, the “PBM E-score” value was inactive: -0.0725. In the case of CACACTGA, the “PBM E-score” value is reported as inactive: 0.0556. In the case of GTACAGAA, the “PBM E-score” value is reported as inactive: 0.136. CTCACGCC was tested, and the “PBM E-score” value was inactive: -0.207. For AACCCGCC, the “PBM E-score” value was inactive: -0.108. With GGGAGACC the “PBM E-score” value was inactive: -0.269. GTGATGTA was tested, and the “PBM E-score” value was active: ≥ 0.383. In the case of GGTTAAAA, the “PBM E-score” value is reported as inactive: 0.0275. For ACACGTAA, the “PBM E-score” value was inactive: 0.309. With TGCCTTAA the “PBM E-score” value was inactive: -0.117. For CTACTACC, the “PBM E-score” value was inactive: 0.0819. For CCGAGGGC, the “PBM E-score” value was inactive: -0.267. For GATCCTGA, the “PBM E-score” value was inactive: -0.0397. With CAGCATCC the “PBM E-score” value was inactive: -0.0813. GCCGGGAA was tested, and the “PBM E-score” value was inactive: -0.181. AAACGACG was tested, and the “PBM E-score” value was inactive: 0.118. With AACCTAGG the “PBM E-score” value was inactive: -0.00734. With AGCCTTAC the “PBM E-score” value was inactive: -0.116. In the case of CGTGCTGA, the “PBM E-score” value is reported as inactive: 0.0459. For TACCCCCA, the “PBM E-score” value was inactive: -0.148. In the case of TCATAGCA, the “PBM E-score” value is reported as inactive: 0.0566. With CACCCAAG the “PBM E-score” value was inactive: -0.0714. In the case of GAGAACTA, the “PBM E-score” value is reported as inactive: 0.122. In the case of CAAGATCC, the “PBM E-score” value is reported as inactive: 0.05. With CTGGAGGA the “PBM E-score” value was inactive: -0.11. In the case of CTTGAATC, the “PBM E-score” value is reported as inactive: 0.0525. With CCGACGAG the “PBM E-score” value was inactive: -0.0411. In the case of CGGGGCAG, the “PBM E-score” value is reported as inactive: -0.227. In the case of TGCGGTAA, the “PBM E-score” value is reported as ≥ 0.0689. For CCTATGCC, the “PBM E-score” value was inactive: -0.139. CACGGCCA was tested, and the “PBM E-score” value was inactive: -0.136. In the case of CCAGCAAG, the “PBM E-score” value is reported as inactive: -0.0738. For GCCAACAA, the “PBM E-score” value was inactive: 0.0786. With GGAGGGGA the “PBM E-score” value was inactive: -0.175. GACTAACA was tested, and the “PBM E-score” value was inactive: 0.237. In the case of CCTCTGTA, the “PBM E-score” value is reported as inactive: 0.0767. For AGCAGACC, the “PBM E-score” value was inactive: -0.0693. For AAGTCGTG, the “PBM E-score” value was inactive: 0.0196. In the case of ACCGGTCC, the “PBM E-score” value is reported as inactive: -0.204. With CGGTCACA the “PBM E-score” value was inactive: -0.0463. In the case of AATAGTGT, the “PBM E-score” value is reported as inactive: 0.138. ACAAAACG was tested, and the “PBM E-score” value was inactive: 0.114. GAGGTAGC was tested, and the “PBM E-score” value was inactive: -0.132. In the case of CATGGCAG, the “PBM E-score” value is reported as inactive: 0.0157. AGCGCTGA was tested, and the “PBM E-score” value was inactive: -0.12. For TATTGAAA, the “PBM E-score” value was inactive: 0.117. In the case of GCTGATCA, the “PBM E-score” value is reported as inactive: 0.0205. For ATTGCCCG, the “PBM E-score” value was inactive: -0.0341. ATTCTTGA was tested, and the “PBM E-score” value was inactive: 0.0712. ATGATCAA was tested, and the “PBM E-score” value was inactive: 0.209. With GGTCCTAC the “PBM E-score” value was inactive: -0.147. CCGGTTAC was tested, and the “PBM E-score” value was inactive: -0.00632. For ATCAACCA, the “PBM E-score” value was inactive: 0.102. For CCGAGCCG, the “PBM E-score” value was inactive: -0.227. With AGAGCCGC the “PBM E-score” value was inactive: -0.149. For ACGAAGCT, the “PBM E-score” value was inactive: -0.0502. For ACATTGGA, the “PBM E-score” value was inactive: 0.194. With ATGTAGCC the “PBM E-score” value was inactive: 0.145. For ATTTAATG, the “PBM E-score” value was inactive: 0.14. In the case of ACGGGTCG, the “PBM E-score” value is reported as inactive: -0.0337. ATATCACC was tested, and the “PBM E-score” value was ≥ 0.208. In the case of TGAAGGAA, the “PBM E-score” value is reported as inactive: -0.0592. With CGCGCCAA the “PBM E-score” value was inactive: -0.18. With CCGTTCTA the “PBM E-score” value was inactive: -0.0731. For CGCATCAG, the “PBM E-score” value was inactive: -0.0504. In the case of CCGCAACA, the “PBM E-score” value is reported as inactive: 0.0823. With GTCTCTTA the “PBM E-score” value was inactive: 0.0121. With CGCATTCA the “PBM E-score” value was inactive: 0.0169. With AATGCTAC the “PBM E-score” value was inactive: 0.122. With CTAGTGGA the “PBM E-score” value was inactive: -0.135. In the case of ATGACTGA, the “PBM E-score” value is reported as inactive: 0.0464. For GAACCGCA, the “PBM E-score” value was inactive: -0.0919. For AACCTAGA, the “PBM E-score” value was inactive: -0.0202. For AAGCAACG, the “PBM E-score” value was inactive: -0.0274. ACATGTCT was tested, and the “PBM E-score” value was active: 0.417. For ATAGCGAC, the “PBM E-score” value was inactive: 0.169. AAAGTGAG was tested, and the “PBM E-score” value was inactive: -0.0278. CGCAGCGC was tested, and the “PBM E-score” value was inactive: -0.212. ATTCGTCC was tested, and the “PBM E-score” value was ≥ 0.0709. For ATATACGA, the “PBM E-score” value was inactive: 0.203. With ACGAAACT the “PBM E-score” value was inactive: 0.0918. With GCGCCCAC the “PBM E-score” value was inactive: -0.269. In the case of AGAGGGCA, the “PBM E-score” value is reported as inactive: -0.191. In the case of GCCATCCA, the “PBM E-score” value is reported as inactive: -0.111. CGTGTGAC was tested, and the “PBM E-score” value was inactive: 0.115. In the case of CCGGAGAA, the “PBM E-score” value is reported as inactive: -0.128. ATCTAGTA was tested, and the “PBM E-score” value was inactive: 0.24. GTCCGTAA was tested, and the “PBM E-score” value was inactive: 0.126. GCTGTTCC was tested, and the “PBM E-score” value was inactive: -0.0241. ATGCTATG was tested, and the “PBM E-score” value was inactive: 0.176. AAGTTGGC was tested, and the “PBM E-score” value was inactive: -0.0747. In the case of ATCAGGGA, the “PBM E-score” value is reported as ≥ 0.0111. For CCGGTACG, the “PBM E-score” value was inactive: -0.144. In the case of CTTCCACC, the “PBM E-score” value is reported as inactive: -0.121. In the case of AGGAGTAA, the “PBM E-score” value is reported as inactive: 0.0605. GAGCTTAA was tested, and the “PBM E-score” value was inactive: -0.126. ACTTATTA was tested, and the “PBM E-score” value was inactive: 0.125.

— the supplement of paper PMC3724861
